{"source": "PubChem BioAssay AID504832", "about": "(National Center for Advancing Translational Sciences (NCATS), 2011)", "note": "Screen size: about 310,000 compounds; about 18,000 (5.8%) were called active. The shares of active, inactive and inconclusive entries below differ from those in the screen. Calls come from the whole dose curve; as a rule, active = well fitted inhibition curve with a large enough effect; inconclusive = small, poorly fitted or top-dose-only effect, or another doubt; inactive = no such curve, though single readings can be large or run the other way. No potency is given beside an inconclusive call; the fits are too rough. % is set by controls: 0 for no effect and ±100 for the full control effect; potency is the fitted concentration of half-maximal effect; tags give direction and shape of the fitted curve.", "data": [{"assay": "Primary qHTS for delayed death inhibitors of the malarial parasite plastid, 48 hour incubation", "settings": "P. falciparum luciferase growth in erythrocytes; series mostly up to 28.7 µM", "how_it_was_run": "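Growth was read as firefly luciferase luminescence after a 48 h, 37 C, 5% CO2 exposure of compounds to reporter-bearing P. falciparum cultures (0.1% parasitemia, 2% hematocrit final) in Albumax-supplemented RPMI 1640.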", "values": [{"smiles": "Cc1[nH][nH]c(=O)c1C(c1ccc(-c2ccc(C(=O)O)cc2)o1)c1c(C)[nH][nH]c1=O", "Potency": "inconclusive [inhibitor, single point]"}, {"smiles": "Cc1cc(C)nc(N/N=C/c2ccc([N+](=O)[O-])o2)n1", "activity change, negative = inhibition": "inactive: -1.43% [at 0.00184 µM]"}, {"smiles": "O=C(NCCc1ccccc1)C1CCC(Cn2c(=O)c3ccccc3n(Cc3cccnc3)c2=O)CC1", "note": "(stereo not drawn)", "Potency": "active: 11.7 µM"}, {"smiles": "CCn1c(NC(=O)/C=C/c2ccc(F)cc2)nc2ccccc21", "Potency": "active: 11.7 µM"}, {"smiles": "COc1cc2ncnc(NCc3ccccc3C)c2cc1OC", "Potency": "active: 14.7 µM"}, {"smiles": "COC(=O)N/N=C/c1ccc([N+](=O)[O-])s1", "Potency": "active: 14.7 µM"}, {"smiles": "CCOCCCNCC(=O)NCC1CCCCC1", "Potency": "inactive"}, {"smiles": "Cc1cccc2sc(N(CCCN(C)C)C(=O)c3ccc4ncsc4c3)nc12", "Potency": "inconclusive [inhibitor, single point]"}, {"smiles": "COc1ccc(SCC(=O)Nc2ccccc2Cl)cc1", "Potency": "inactive"}, {"smiles": "COc1cc(OC)nc(Oc2ccc(N)c(C)c2)n1", "Potency": "inactive"}, {"smiles": "Cc1ccc(-c2cc(C(=O)Nc3cccnc3)c3ccccc3n2)s1", "Potency": "active: 2.62 µM"}, {"smiles": "CCOC(=O)c1sc(NC(=O)c2ccc(S(=O)(=O)N(C)C)cc2)nc1C", "Potency": "inconclusive [inhibitor, single point]"}, {"smiles": "Cc1cccn2c(=O)c3cc(S(=O)(=O)c4ccc(Br)cc4)c(=N)n(C4CCCC4)c3nc12", "Potency": "inconclusive [inhibitor, partial curve]"}, {"smiles": "Cc1nn(Cc2c(F)cccc2Cl)c(=O)c2ccccc12", "Potency": "inactive"}, {"smiles": "COCCCN1C(=O)c2[nH]nc(-c3ccccc3O)c2C1c1ccc(Cl)cc1", "note": "(stereo not drawn)", "Potency": "inconclusive [inhibitor, single point]"}, {"smiles": "COc1ccc(N2CCN(C(=O)COC(=O)COc3cccc(C(F)(F)F)c3)CC2)cc1", "Potency": "inactive"}, {"smiles": "COc1ccc(/C=N/Nc2nn3cnnc3c3ccccc23)cc1", "Potency": "inconclusive [inhibitor, partial curve, poor fit]"}, {"smiles": "Cc1ccc(Cn2ccc(NC(=O)c3cc(-c4cccs4)on3)n2)cc1", "Potency": "active: 10.4 µM"}, {"smiles": "Cc1ccc(C(C)NC(=S)NC2CCCCC2)cc1C", "note": "(stereo not drawn)", "Potency": "active: 10.4 µM"}, {"smiles": "COc1cc(NS(=O)(=O)c2ccc(NC(=S)NC(=O)c3ccccc3)cc2)nc(OC)n1", "Potency": "inactive"}, {"smiles": "CC(C)(C)c1ccc(OCC(=O)Nc2cccc(S(=O)(=O)NC3=NCCCCC3)c2)cc1", "Potency": "inconclusive [inhibitor, single point]"}, {"smiles": "Cc1csc(NC(=O)c2ccc(S(C)(=O)=O)cc2)n1", "Potency": "inactive"}, {"smiles": "COc1ccc(C(=O)NC(=S)N2CCN(c3ccccc3OC)CC2)cc1", "Potency": "inconclusive [inhibitor, single point]"}]}]}
